One block for each binder: values may come before it.
Legend:
[1] = biological target: T1, 재조합 인간 TIGIT 단백질 (Acro Biosystems) (human, UniProt Q495A1 22-141); experiment: SPR, Biacore T200 multi-cycle kinetics, 25C; fusion protein captured on anti-human IgG CM5 chip, recombinant human TIGIT as analyte; 1:1 model
T1 construct: Bought recombinant protein; also called recombinant human TIGIT; TIGIT 항원
T1 sequence: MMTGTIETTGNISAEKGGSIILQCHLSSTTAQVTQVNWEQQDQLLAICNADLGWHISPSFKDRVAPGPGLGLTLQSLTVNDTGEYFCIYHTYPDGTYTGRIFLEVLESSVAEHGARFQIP

[2] = biological target: T2, IL2RB/IL2RG (PathHunter eXpress Dimerization Cells) (UniProt P14784 27-551; P31785 23-369, limits assumed); experiment: cell-based or functional assay
T2 sequence (looked up) 1: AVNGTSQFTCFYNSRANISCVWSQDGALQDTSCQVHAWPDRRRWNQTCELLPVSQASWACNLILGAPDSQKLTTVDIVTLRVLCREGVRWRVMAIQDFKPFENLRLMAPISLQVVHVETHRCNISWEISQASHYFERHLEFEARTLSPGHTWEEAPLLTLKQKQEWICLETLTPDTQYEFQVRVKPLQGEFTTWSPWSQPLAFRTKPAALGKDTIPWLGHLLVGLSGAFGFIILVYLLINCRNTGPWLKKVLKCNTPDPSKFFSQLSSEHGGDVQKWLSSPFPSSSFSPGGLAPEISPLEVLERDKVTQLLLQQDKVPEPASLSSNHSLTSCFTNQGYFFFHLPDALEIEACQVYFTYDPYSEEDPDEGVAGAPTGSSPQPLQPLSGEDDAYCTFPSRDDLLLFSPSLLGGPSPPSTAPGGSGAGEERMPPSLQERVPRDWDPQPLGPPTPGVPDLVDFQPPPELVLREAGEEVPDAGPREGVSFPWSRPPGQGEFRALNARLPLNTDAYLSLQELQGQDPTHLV
T2 sequence (looked up) 2: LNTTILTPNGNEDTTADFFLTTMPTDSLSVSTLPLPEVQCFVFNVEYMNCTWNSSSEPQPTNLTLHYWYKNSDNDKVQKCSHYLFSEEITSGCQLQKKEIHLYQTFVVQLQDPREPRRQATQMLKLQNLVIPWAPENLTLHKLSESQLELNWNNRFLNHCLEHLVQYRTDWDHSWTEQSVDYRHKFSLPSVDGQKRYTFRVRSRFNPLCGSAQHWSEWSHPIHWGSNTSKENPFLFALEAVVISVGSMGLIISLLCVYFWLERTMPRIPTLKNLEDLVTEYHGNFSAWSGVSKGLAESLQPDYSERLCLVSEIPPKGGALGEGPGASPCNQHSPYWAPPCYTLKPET

[3] = biological target: T1, 재조합 인간 TIGIT 단백질 (Acro Biosystems); experiment: ELISA, plate coated with recombinant human TIGIT, anti-IgG-HRP detection, OD450

B1: 2B7-RS15 (2B7-RS15.0) (other)
heavy: EVQLQQSGPELVKPGASVKISCKTSGSTFTEYTMHWVKQSHGKSLEWIGGLNPNNGGTSYNQRFKDRATLTVDKSSSTAYMELRSLTSEDSAVYYCTRGTYYDYSFAYWGQGTLVTVSAASTKGPSVFPLAPSSKSTSGGTAALGCLVKDYFPEPVTVSWNSGALTSGVHTFPAVLQSSGLYSLSSVVTVPSSSLGTQTYICNVNHKPSNTKVDKRV[sequence of human IgG1 Fc not given]
light: DIVMTQSHKFMSTSVGDRVSITCKASHYVSTAVAWYQQKPGQSPKLLIYSPSYRYTGVPDRFTGSGSGTDFTFTISSVQAEDLAVYYCHQHYSTPWTFGGGTKLEIKRTVAAPSVFIFPPSDEQLKSGTASVVCLLNNFYPREAKVQWKVDNALQSGNSQESVTEQDSKDSTYSLSSTLTLSKADYEKHKVYACEVTHQGLSSPVTKSFNRGECEAAAKEAAAKEAAAKITCPPPMSVEHADIWVKSYSLYSRERYICNSGFKRKAGTSSLTECVLNKATNVAHWTTPSLKCIRDPALVHQRPAPPSGGSGGGGSGGGSGGGGSLQ[sequence of about 120 residues not given]
notes: Antibody-cytokine fusion
Kd [1]: 1480 pM
koff [1]: 0.000386 s⁻¹
kon [1]: 261000 M⁻¹ s⁻¹

B2: 7A6RS15TL-2 (7A6-RS15.0; 7A6 VH3/Vk5-RS15.0) (other)
heavy: QVQLQESGPGLVKPSQTLSLTCTVTGYSITSDYAWNWIRQPPGKGLEWMGYISYSGSARYNPSLKSRVTISRDTSKNQFSLKLSSVTAEDTATYYCARKGYPAYFAYWGQGTLVTVSSASTKGPSVFPLAPSSKSTSGGTAALGCLVKDYFPEPVTVSWNSGALTSGVHTFPAVLQSSGLYSLSSVVTVPSSSLGTQTYICNVNHKPSNTKVDKRV[sequence of human IgG1 Fc not given]
light: DIQMTQSPSSLSASVGDRVSITCKASQDVSTAVAWYQQKPGQAPRLLIYSASYRYTGVPDRFSGSGSGTDFTLTISSLQPEDFATYYCQHHYSTPYTFGQGTKLEIKRTVAAPSVFIFPPSDEQLKSGTASVVCLLNNFYPREAKVQWKVDNALQSGNSQESVTEQDSKDSTYSLSSTLTLSKADYEKHKVYACEVTHQGLSSPVTKSFNRGECEAAAKEAAAKEAAAKITCPPPMSVEHADIWVKSYSLYSRERYICNSGFKRKAGTSSLTECVLNKATNVAHWTTPSLKCIRDPALVHQRPAPPSGGSGGGGSGGGSGGGGSLQ[sequence of about 120 residues not given]
notes: Antibody-cytokine fusion
IL2RB/IL2RG 이량체화 (PathHunter eXpress Dimerization Assay, 화학발광) EC50 [2]: 248 pM
Kd [1]: 756 pM
koff [1]: 0.00179 s⁻¹
kon [1]: 2.37e+06 M⁻¹ s⁻¹

B3: 7A6RS15TL-2DL-0 (7A6-RS15.3; 7A6 VH3/Vk5-RS15.3) (other)
heavy: B2 heavy
light: DIQMTQSPSSLSASVGDRVSITCKASQDVSTAVAWYQQKPGQAPRLLIYSASYRYTGVPDRFSGSGSGTDFTLTISSLQPEDFATYYCQHHYSTPYTFGQGTKLEIKRTVAAPSVFIFPPSDEQLKSGTASVVCLLNNFYPREAKVQWKVDNALQSGNSQESVTEQDSKDSTYSLSSTLTLSKADYEKHKVYACEVTHQGLSSPVTKSFNRGECEAAAKEAAAKEAAAKITCPPPMSVEHADIWVKSYSLYSRERYICNSGFKRKAGTSSLTECVLNKATNVAHWTTPSLKCIRDPALVHQRPAPPGSGGGGSGGGGSIQ[sequence of about 120 residues not given]
notes: Antibody-cytokine fusion
binding result [3]: binds

B8: 3F8-RS15 (3F8-RS15.0) (other)
heavy: EVQLQQSGPELVKPGASMKISCKASGYSFTDYIMNWVKQSHGKNLEWIGLSIPYNGGTSYNQKFEGKATLTVDKSSSTAYMELLSLTSEDSAVYYCARGIKGYFAMDYWGQGTSVTVSSASTKGPSVFPLAPSSKSTSGGTAALGCLVKDYFPEPVTVSWNSGALTSGVHTFPAVLQSSGLYSLSSVVTVPSSSLGTQTYICNVNHKPSNTKVDKRV[sequence of human IgG1 Fc not given]
light: DVVVTQTPLSLPVSFGDQVSISCRSSQSLVNSFGKTYLSWFLHKPGQSPQLIMYGVSNRFSGVPDRFSGSGSGTDFTLKISTIKPEDLGMYYCLQGTHQPWTFGGGTKLEIKRTVAAPSVFIFPPSDEQLKSGTASVVCLLNNFYPREAKVQWKVDNALQSGNSQESVTEQDSKDSTYSLSSTLTLSKADYEKHKVYACEVTHQGLSSPVTKSFNRGECEAAAKEAAAKEAAAKITCPPPMSVEHADIWVKSYSLYSRERYICNSGFKRKAGTSSLTECVLNKATNVAHWTTPSLKCIRDPALVHQRPAPPSGGSGGGGSGGGSGGGGSLQ[sequence of about 120 residues not given]
notes: Antibody-cytokine fusion
Kd [1]: 1140 pM
koff [1]: 0.000216 s⁻¹
kon [1]: 189000 M⁻¹ s⁻¹

The remaining lines, values ahead:

binding result [3]: binds
B4: 7A6RS15TL-2DL-4 (7A6-RS15.5; 7A6 VH3/Vk5-RS15.5) (other)
heavy: B2 heavy
light: DIQMTQSPSSLSASVGDRVSITCKASQDVSTAVAWYQQKPGQAPRLLIYSASYRYTGVPDRFSGSGSGTDFTLTISSLQPEDFATYYCQHHYSTPYTFGQGTKLEIKRTVAAPSVFIFPPSDEQLKSGTASVVCLLNNFYPREAKVQWKVDNALQSGNSQESVTEQDSKDSTYSLSSTLTLSKADYEKHKVYACEVTHQGLSSPVTKSFNRGECEAAAKEAAAKEAAAKITCPPPMSVEHADIWVKSYSLYSRERYICNSGFKRKAGTSSLTECVLNKATNVAHWTTPSLKCIRDPALVHQRPAPPSGGGGSGGGSGGGGGSGGGSG[sequence of about 120 residues not given]
notes: Antibody-cytokine fusion

binding result [3]: binds
B5: 7A6RS15TL-2DL-2 (7A6-RS15.1; 7A6 VH3/Vk5-RS15.1) (other)
heavy: B2 heavy
light: DIQMTQSPSSLSASVGDRVSITCKASQDVSTAVAWYQQKPGQAPRLLIYSASYRYTGVPDRFSGSGSGTDFTLTISSLQPEDFATYYCQHHYSTPYTFGQGTKLEIKRTVAAPSVFIFPPSDEQLKSGTASVVCLLNNFYPREAKVQWKVDNALQSGNSQESVTEQDSKDSTYSLSSTLTLSKADYEKHKVYACEVTHQGLSSPVTKSFNRGECEAAAKEAAAKEAAAKITCPPPMSVEHADIWVKSYSLYSRERYICNSGFKRKAGTSSLTECVLNKATNVAHWTTPSLKCIRDPALVHQRPAPPGGGGSGGGGSGGGGS[sequence of about 120 residues not given]
notes: Antibody-cytokine fusion

binding result [3]: binds
B6: 7A6RS15TL-2DL-3 (7A6-RS15.4; 7A6 VH3/Vk5-RS15.4) (other)
heavy: B2 heavy
light: DIQMTQSPSSLSASVGDRVSITCKASQDVSTAVAWYQQKPGQAPRLLIYSASYRYTGVPDRFSGSGSGTDFTLTISSLQPEDFATYYCQHHYSTPYTFGQGTKLEIKRTVAAPSVFIFPPSDEQLKSGTASVVCLLNNFYPREAKVQWKVDNALQSGNSQESVTEQDSKDSTYSLSSTLTLSKADYEKHKVYACEVTHQGLSSPVTKSFNRGECEAAAKEAAAKEAAAKITCPPPMSVEHADIWVKSYSLYSRERYICNSGFKRKAGTSSLTECVLNKATNVAHWTTPSLKCIRDPALVHQRPAPPSGGGGSGGGSGGGGGSGG[sequence of about 120 residues not given]
notes: Antibody-cytokine fusion

binding result [3]: binds
B7: 7A6RS15TL-2DL-1 (7A6-RS15.2; 7A6 VH3/Vk5-RS15.2) (other)
heavy: B2 heavy
light: DIQMTQSPSSLSASVGDRVSITCKASQDVSTAVAWYQQKPGQAPRLLIYSASYRYTGVPDRFSGSGSGTDFTLTISSLQPEDFATYYCQHHYSTPYTFGQGTKLEIKRTVAAPSVFIFPPSDEQLKSGTASVVCLLNNFYPREAKVQWKVDNALQSGNSQESVTEQDSKDSTYSLSSTLTLSKADYEKHKVYACEVTHQGLSSPVTKSFNRGECEAAAKEAAAKEAAAKITCPPPMSVEHADIWVKSYSLYSRERYICNSGFKRKAGTSSLTECVLNKATNVAHWTTPSLKCIRDPALVHQRPAPPGSGGGGSGGGGSLQ[sequence of about 120 residues not given]
notes: Antibody-cytokine fusion
